Counter-ions that a name gives are not always drawn. ± gives the standard deviation of the averaged measurements. Over roughly 1,900 compounds, “normalised cell viability (NPI; 0 = phenylarsine oxide control, 1 = DMSO control)” has its median near 1; the lowest 2% begin near 0.039. Some of the results follow.
System: NCI-H1944
Assay: normalised cell viability (NPI; 0 = phenylarsine oxide control, 1 = DMSO control) (fraction of DMSO control); NCI-H1944 is a non-small cell lung cancer line; higher = more viable cells (less compound toxicity)
Settings: 6 days
[1] = glucocorticoid arm: hydrocortisone 2.75 uM co-treatment, compound 1 µM
[2] = glucocorticoid arm: hydrocortisone 2.75 uM co-treatment, compound 5 µM
[3] = glucocorticoid arm: hydrocortisone 2.75 uM pre-treated 2 days and continued, compound 1 µM
[4] = glucocorticoid arm: hydrocortisone 2.75 uM pre-treated 2 days and continued, compound 5 µM
[5] = glucocorticoid arm: vehicle, compound 1 µM
[6] = glucocorticoid arm: vehicle, compound 5 µM
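Also: CTB read-out in 384-well plates, mean of triplicate wells, normalised per plate against 1 µM phenylarsine oxide and 0.1% DMSO, compounds added 24 h after seeding.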

Structure (SMILES)	normalised cell viability [1]	normalised cell viability [2]	normalised cell viability [3]	normalised cell viability [4]	normalised cell viability [5]	normalised cell viability [6]
O=[N+]([O-])c1cc2nc(O)c(O)nc2cc1[N+](=O)[O-]	0.985 ± 0.012	0.981 ± 0.013	0.99 ± 0.0089	0.965 ± 0.014	0.9743 ± 0.0064	0.971 ± 0.007
CC(=O)/C(C)=N/O [2,3-Butanedione monoxime]	0.997 ± 0.0052	0.98 ± 0.033	0.986 ± 0.017	0.9965 ± 0.00071	0.987 ± 0.0066	0.9773 ± 0.0085
COCC(=O)O[C@]1(CCN(C)CCCc2nc3ccccc3[nH]2)CCc2cc(F)ccc2[C@@H]1C(C)C [Mibefradil dihydrochloride]	0.977 ± 0.011	0.0303 ± 0.012	1 ± 0.015	0.827 ± 0.24	0.9887 ± 0.0031	0.00844 ± 0.014
O=c1c2ccccc2nc2n1CCc1c-2[nH]c2ccccc12 [Rutaecarpine]	1.03 ± 0.015	1.06 ± 0.02	1.04 ± 0.036	1.05 ± 0.02	1.001 ± 0.0079	0.996 ± 0.004
OC[C@H]1O[C@@H](n2cnc3c2N=CNC[C@H]3O)C[C@@H]1O [Pentostatin]	1.02 ± 0.011	1.01 ± 0.022	1.03 ± 0.011	1.04 ± 0.01	1.013 ± 0.0058	1.01 ± 0.011
COc1nc(N)nc2c1ncn2[C@@H]1O[C@H](CO)[C@@H](O)[C@@H]1O [Nelarabine]	1.01 ± 0.015	0.785 ± 0.052	1.004 ± 0.0098	0.885 ± 0.035	0.9907 ± 0.0029	0.323 ± 0.026
O=C(CCCN1CCC(O)(c2cccc(C(F)(F)F)c2)CC1)c1ccc(F)cc1 [Trifluperidol hydrochloride]	0.999 ± 0.0095	0.962 ± 0.022	1.05 ± 0.038	1.04 ± 0.02	1.023 ± 0.0058	1.017 ± 0.0058
CN(C)CCCn1cc(C2=C(c3c[nH]c4ccccc34)C(=O)NC2=O)c2ccccc21	0.992 ± 0.017	1.06 ± 0.011	1.01 ± 0.02	1.01 ± 0.059	1.03 ± 0.011	1.05
O=C(Nc1cccc(Nc2ncc(Br)c(NCCc3cnc[nH]3)n2)c1)N1CCCC1	0.955 ± 0.015	0.805 ± 0.016	0.939 ± 0.0062	0.859 ± 0.02	0.917 ± 0.0095	0.635 ± 0.029
COc1ccccc1N1CCN(CCCNc2cc(=O)n(C)c(=O)n2C)CC1 [Urapidil hydrochloride]	1.023 ± 0.0058	1.01 ± 0.01	1.03 ± 0.017	1.017 ± 0.0058	1.01 ± 0.011	1.01 ± 0.01
COc1ccccc1N1CCN(CCCNc2cc(=O)n(C)c(=O)n2C)CC1 [Urapidil HCl]	0.998 ± 0.038	1.02 ± 0.01	1.02 ± 0.01	0.995 ± 0.022	1.002 ± 0.0068	0.999 ± 0.011
CN/C(=N\c1ccc(C2=NNC(=O)CC2C)cc1)NC#N (stereo unspecified)	0.9943 ± 0.0046	0.992 ± 0.018	0.875 ± 0.22	0.9957 ± 0.0051	0.995 ± 0.005	0.997 ± 0.0052
CN(C)[C@@H]1C(=O)C(C(N)=O)=C(O)[C@@]2(O)C(=O)C3=C(O)c4c(O)ccc(Cl)c4[C@@H](O)[C@H]3C[C@@H]12 [Demeclocycline hydrochloride]	0.985 ± 0.015	0.882 ± 0.017	0.9907 ± 0.0055	0.932 ± 0.024	0.975 ± 0.0027	0.967 ± 0.014
Cn1cnc([N+](=O)[O-])c1Sc1ncnc2[nH]cnc12 [Azathioprine]	0.963 ± 0.022	0.798 ± 0.031	0.9717 ± 0.0032	0.924 ± 0.023	0.972 ± 0.012	0.863 ± 0.009
CC(=O)Oc1cc2c(s1)CCN(C(C(=O)C1CC1)c1ccccc1F)C2 (stereo unspecified) [Prasugrel]	1.007 ± 0.0058	1.05 ± 0.011	0.977 ± 0.039	1.05 ± 0.015	1.007 ± 0.0058	0.9987 ± 0.0023
CC(C)C(=O)Nc1ccc([N+](=O)[O-])c(C(F)(F)F)c1 [Flutamide]	1.01	1.01 ± 0.012	1.007 ± 0.0058	1.01 ± 0.011	1.007 ± 0.0058	1.02 ± 0.011
S=C(NCc1ccc2c(c1)OCO2)N1CCN(c2ncnc3c2oc2ccccc23)CC1 [Amuvatinib (MP-470)]	0.982 ± 0.019	1.01 ± 0.037	0.9972 ± 0.0086	1.02 ± 0.018	0.975 ± 0.02	0.984 ± 0.012
CC(=O)OCC[N+](C)(C)C [Acetylcholine Chloride]	1.01 ± 0.012	1.01 ± 0.025	1.02 ± 0.032	1 ± 0.014	0.996 ± 0.013	0.986 ± 0.016
CC1(C)CCC2=C(O1)c1ccccc1C(=O)C2=O [beta-Lapachone]	1.003 ± 0.0058	0.459 ± 0.07	0.995 ± 0.013	0.986 ± 0.013	0.9993 ± 0.0011	0.213 ± 0.019
Cn1c(Nc2ccc(C(F)(F)F)cc2)nc2cc(Oc3ccnc(-c4ncc(C(F)(F)F)[nH]4)c3)ccc21	0.882 ± 0.017	0.889 ± 0.048	0.938 ± 0.0027	0.945 ± 0.026	0.911 ± 0.014	0.901 ± 0.045
O=C(O)/C=C/c1cnc[nH]1 [4-Imidazoleacrylic acid]	0.999 ± 0.0017	1.01 ± 0.017	1.05 ± 0.074	1.013 ± 0.0058	1.001 ± 0.0085	0.9917 ± 0.0055
CC(=O)SCC(Cc1ccccc1)C(=O)NCC(=O)OCc1ccccc1 (stereo unspecified) [Racecadotril]	1.02 ± 0.011	1.02 ± 0.026	1.01 ± 0.01	1.027 ± 0.0058	1.001 ± 0.0086	1
CC1COc2c(N3CCN(C)CC3)c(F)cc3c(=O)c(C(=O)O)cn1c23 (stereo unspecified) [Ofloxacin]	0.9917 ± 0.005	0.965 ± 0.024	0.9977 ± 0.0025	1.02 ± 0.079	0.9773 ± 0.0061	0.985 ± 0.01
CCOC(=O)Nc1ccc(NCc2ccc(F)cc2)nc1N [Flupirtine maleate]	0.9973 ± 0.0031	1.01 ± 0.01	1 ± 0.013	1.02 ± 0.015	1.01 ± 0.011	1.01
NC(CO)C(=O)NNCc1ccc(O)c(O)c1O (stereo unspecified) [Benserazide hydrochloride]	1 ± 0.018	1 ± 0.017	1.013 ± 0.0058	1.01 ± 0.021	1.006 ± 0.0069	1.007 ± 0.0058
NC(CO)C(=O)NNCc1ccc(O)c(O)c1O (stereo unspecified) [Benserazide HCl]	1.005 ± 0.0087	1.01 ± 0.015	1.03 ± 0.015	1.03 ± 0.021	0.999 ± 0.011	0.9953 ± 0.0057
